# According to the supplement of paper PMC4723716:
# ± gives the uncertainty stated by the source. Over roughly 9,900 compounds, “viability index relative to DMSO control” has its median near 1; the lowest 2% begin near 0.85. This is one part of the list.
# Test system: Plasmodium falciparum NF54 stage V gametocytes
# Experiment: viability index relative to DMSO control (fraction); higher = less gametocyte killing
# Conditions: 2.5 µM, library set: Broad Institute DOS, incubation time: 72 h
# Outline: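 P. falciparum NF54 stage V gametocytes in serum-free screening medium (0.75% gametocytemia, 1.25% hematocrit, 10 µl) were incubated with compound at 2.5 µM in 1,536-well plates for 72 hr at 37°C under low oxygen. Then 3 µl of 2.5 µM MitoTracker Red CMXRos plus 0.13% saponin was added for one to two hours. One field per well was imaged, 20–70 µm2 red particles were counted, and the viability index was the count divided by the plate mean of DMSO wells.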
row,Structure (SMILES),viability index
1,COc1ccc(CN(C)C[C@@H]2OCCCC[C@@H](C)Oc3ccc(NC(=O)C4CCCCC4)cc3C(=O)N([C@@H](C)CO)C[C@@H]2C)cc1,1.11 ± 0.031
2,CC(C)C#Cc1ccc([C@@H]2[C@H](CO)N3C(=O)CN(C(=O)c4ccc5c(c4)OCO5)C[C@@H]23)cc1,1.13 ± 0.021
3,CO[C@@H](CN(C)S(=O)(=O)c1ccc(F)cc1)[C@@H](C)CN(Cc1ccccc1Cl)[C@H](C)CO,0.9994 ± 0.0071
4,CN1C(=O)c2cc(NC(=O)c3ccc(F)c(F)c3)ccc2OC[C@@H]2O[C@H](CC(=O)N3CCCCC3)CC[C@@H]21,1.08 ± 0.042
5,C[C@@H]1CN([C@H](C)CO)C(=O)c2cccc(NC(=O)Nc3ccc(C(F)(F)F)cc3)c2O[C@@H]1CN(C)S(=O)(=O)c1cn(C)cn1,0.921 ± 0.13
6,COCC(=O)Nc1ccc2c(c1)OC[C@@H](C)N(C)C[C@H](C)[C@@H](OC)CN(C)C2=O,1.09 ± 0.069
7,CO[C@H]1CN(C)C(=O)c2cc(NS(=O)(=O)CC(F)(F)F)ccc2OC[C@@H](C)NC[C@@H]1C,1.05 ± 0.016
8,C[C@H]1CCCCO[C@@H](CN(C)S(=O)(=O)c2ccc(F)cc2)[C@@H](C)CN([C@@H](C)CO)C(=O)c2cc(N(C)C)ccc2O1,1.09 ± 0.079
9,O=C(C[C@@H]1CC[C@H]2[C@@H](COC[C@@H](O)CN2C(=O)c2ccc3c(c2)OCO3)O1)NC1CCC1,0.958 ± 0.19
10,CNC[C@H]1OCCCC[C@H](C)Oc2ccc(NC(=O)Nc3ccc(OC)cc3)cc2C(=O)N([C@@H](C)CO)C[C@@H]1C,1.05 ± 0.087
11,CO[C@H](CN(C)S(=O)(=O)c1cccc(Cl)c1)[C@H](C)CN(C(=O)Nc1ccccc1F)[C@H](C)CO,1.01 ± 0.012
12,CC(=O)N1[C@@H]2CN(S(=O)(=O)c3ccccc3C)c3ccccc3[C@@H]2[C@@H]1CO,1.07 ± 0.072
13,O=C(C[C@H]1CC[C@@H]2NC[C@H](O)COC[C@H]2O1)NCc1ccc2c(c1)OCO2,1.04 ± 0.044
14,CO[C@H]1CN(C)C(=O)c2ccc(NC(=O)Nc3ccccc3F)cc2OC[C@@H](C)N(CC2CC2)C[C@H]1C,1.11 ± 0.021
15,CCCNC(=O)N1CC(=O)N2[C@H](C1)[C@@H](c1ccc(C#CCC3CCCC3)cc1)[C@@H]2CO,1.11 ± 0.12
16,CCCNC(=O)Nc1ccc2c(c1)OC[C@@H](C)N(S(C)(=O)=O)C[C@H](C)[C@H](OC)CN(C)C2=O,0.998 ± 0.015
17,CN1CCN(C(=O)C[C@@H]2CC[C@@H]3[C@H](COC[C@H](O)CN3Cc3cccc(-c4ccncc4)c3)O2)CC1,1.1 ± 0.027
18,COCC(=O)N1CC2(C1)[C@H](c1ccc(-c3ccc(C)cc3)cc1)[C@H](CO)N2C(C)=O,1.15 ± 0.0016
19,CN1C[C@H]2[C@@H](c3ccccc31)[C@@H](CO)N2S(=O)(=O)c1ccccc1,1.025 ± 0.0018
